The list shows a part of the results. These are noisy estimates, calculated here from bound and input reads.
The sequences below were run against T1, Pho4 (S. cerevisiae) (UniProt P07270) (assay: relative binding free energy (BET-seq); higher = weaker binding). Conditions: reference: library average.
T1 sequence: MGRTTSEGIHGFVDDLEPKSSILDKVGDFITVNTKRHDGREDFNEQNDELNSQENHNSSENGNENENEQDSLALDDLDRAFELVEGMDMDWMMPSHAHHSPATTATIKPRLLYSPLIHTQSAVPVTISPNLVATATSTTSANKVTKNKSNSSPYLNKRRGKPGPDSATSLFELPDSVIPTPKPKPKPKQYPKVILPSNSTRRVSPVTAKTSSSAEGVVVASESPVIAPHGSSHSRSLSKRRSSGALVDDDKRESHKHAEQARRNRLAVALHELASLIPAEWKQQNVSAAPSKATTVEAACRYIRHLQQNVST

Sequence	relative binding free energy [kJ/mol]
CGTCGCACGTGTGCGT	0.377
TTCGACACGTGGAGTT	0.0418
TGTGACACGTGCCGTG	-0.167
GTTTGCACGTGTGGTG	0.669
ATCGGCACGTGCTGGG	-0.544
AGTGTCACGTGAAGTT	1.63
TTGGGCACGTGGGCGT	-0.711
GGGTTCACGTGGTACT	1.8
ATTGGCACGTGCTTGA	-0.335
TCTGACACGTGTTTTG	-0.0418
TGTTTCACGTGTGCAA	0.92
TAATGCACGTGGATGA	0.209
AAATTCACGTGTCGTT	1
GGGATCACGTGGGACG	0.209
AGATGCACGTGGGGAC	-0.837
CACGGCACGTGGTGGT	-1.21
TATATCACGTGAGCTG	0.837
ATTAGCACGTGTAAGC	0.628
TTATACACGTGGCGGG	-0.377
TATCTCACGTGTAAGG	1.26
TCTGGCACGTGTGATG	0.628
GTAGCCACGTGGGGTG	-0.628
TGCTTCACGTGCAGGT	0.879

Sequence	relative binding free energy [kJ/mol]
CTGTGCACGTGGGTGT	-1
CGAGGCACGTGGTCGG	-0.544
GGCGGCACGTGTGGGT	-0.0418
TTAATCACGTGGGCAT	-0.0418
GGGAGCACGTGTGGGC	0.126
GACGACACGTGTGGGG	0.46
AGATGCACGTGATTAA	0.669
TTTTACACGTGGCCGT	0.46
GGCGACACGTGGGGAG	0.628
TAGAACACGTGGGATA	-0.167
AATTACACGTGTGTCT	0.879
TTTATCACGTGATCTG	0.669
TTATTCACGTGGTAGG	0.753
AGGTACACGTGTTGCT	0.377
AGGATCACGTGGGCAG	0.167
CTGTGCACGTGGTAAG	-0.669
TATGGCACGTGGGTTA	-0.837
ACTTGCACGTGAAGTG	1.42
ATCAGCACGTGTTGTT	-0.167
GTCATCACGTGTGTGA	0.418
GGGGACACGTGTATGT	0.126
AGGTTCACGTGTTATA	0.711
GTGGTCACGTGTCTAT	0.795

Sequence	relative binding free energy [kJ/mol]
ACTATCACGTGTATGT	0.502
ATTAGCACGTGTTAAG	-0.0837
GGGTGCACGTGACTGC	0.879
AGCTCCACGTGGGGGT	-0.879
GAAAGCACGTGGGGCG	-0.544
TTTGACACGTGGTGGG	0.0837
TATTGCACGTGATAGC	0.46
TGTCACACGTGGGGAC	0
TTAGCCACGTGTTTGA	-0.46
GTACGCACGTGTAAGG	-0.251
AGTGGCACGTGAAATT	1.21
GAAGTCACGTGAGGTC	1.76
GGTGTCACGTGGGGCT	0.0837
CCGGGCACGTGTTGTG	-0.502
CTTTGCACGTGATTGA	0
GTTTACACGTGGAATG	0.377
ATGTTCACGTGTGGTC	0.962
TGCACCACGTGGGTTG	-1.21
GAGTACACGTGTAAGG	0.502
ATTTTCACGTGCTCTG	0.753
CATGACACGTGGGCGT	-0.335
CACTACACGTGTTGTT	0.753
GAATGCACGTGTGGGA	0.795

Sequence	relative binding free energy [kJ/mol]
TGCGGCACGTGGATTA	0.251
TTTAGCACGTGTCGAG	0.126
GATTTCACGTGGTGTC	0.711
ATTGACACGTGACTGG	0.335
TGTACCACGTGGGGGA	-0.795
AGGGGCACGTGAACGT	0
TTTGCCACGTGAGGCG	0
GAATTCACGTGAGGTA	1.67
GGTGTCACGTGGCCCG	-0.0837
GTTTGCACGTGGCATA	-0.377
TCTTTCACGTGGGTCG	0.669
TGGGCCACGTGTGATA	-0.0418
GTTTGCACGTGGGTAT	0.126
ATGTTCACGTGATTTA	1.8
AGGGCCACGTGGGAAG	-0.753
TGGTCCACGTGATTTG	1.21
CTTGTCACGTGTATGG	0.293
TGGGTCACGTGCGATA	0.293
GTTAACACGTGGGTCA	-0.251
TGGTGCACGTGGTCCT	-0.711
CAGGGCACGTGTAGCG	-0.251
ATTAGCACGTGCGGGT	-0.544
TGAGGCACGTGCGGTC	-0.795

Sequence	relative binding free energy [kJ/mol]
TAGTTCACGTGCTGGA	1.05
GTTTTCACGTGTTGCA	1.42
CAATTCACGTGTTATG	1.09
GCAATCACGTGTGTGT	0.962
GATGACACGTGGGAGG	0.126
TTTAGCACGTGTGGAA	-0.209
GGTTGCACGTGTTAGG	0.795
TTGTGCACGTGGATGC	-0.628
TCGGGCACGTGCGTGA	-0.669
TTCTGCACGTGTTTCG	-0.0418
CTGAGCACGTGGGGGT	-1.21
GGGATCACGTGAGGTG	1.13
GTTGACACGTGGCAGG	-0.46
ATGCACACGTGGGATT	0.46
GGGGACACGTGAGCGT	0
TTGATCACGTGCATTA	1.05
AATTGCACGTGGGCTT	-0.544
AAATTCACGTGCGTGG	0.92
TAGGACACGTGGTAGT	-0.586
AACGTCACGTGTGGGA	0.544
CTGTTCACGTGTATTG	1.17
ATGTGCACGTGTTGCA	-0.753
GACGTCACGTGAAGGT	1.46

Source: the BET-seq Pho4 binding data (Le et al. 2018)
